# Sequences with one replicate were seen in a single cluster, so their values are uncertain.
# System: ATP
# Assay: switch fluorescence ratio, 500 uM ATP over buffer (Cy3 cluster intensity, sum of 5 cycles each) (fold (ratio)); higher = stronger signal-on switching upon ATP binding; sequences stand for … in TCGTCGGCAGCGTCAGATGTGTATAAGAGACAGTTTTTTTTTTTTTTTTTTTTTTTTT…TC
# Conditions: aptamer strand: ATP DNA aptamer (quencher-CACCTGGGGGAGTATTGCGGAGGAAGG + anchor), 100 nM annealed; ATP concentration: 500 uM; one replicate
# How it was run: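 For every switch-domain sequence, the fluorescence ratio is the mean of per-cluster values, each being summed target-cycle Cy3 intensity over summed buffer-cycle Cy3 intensity. Clusters outside 100-1000 RFU were excluded. On a modified Illumina MiSeq flow-cell, the Cy3-labelled switching-strand clusters were annealed to 100 nM quencher-labelled ATP aptamer, imaged in selection buffer and then after 15 min with 500 uM ATP at 22 °C. Five such cycles were run, with NaOH stripping and re-annealing between them.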
# 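Also: ATP exposure 15 min at 22 °C before imaging.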
row,Sequence,switch fluorescence ratio
1,GCGGGGAACC,1.01
2,GCGGGGCACG,0.971
3,GCGGGGGAGC,0.957
4,GCGGGGTCAC,1.01
5,GCGGGTATGC,1
6,GCGGGTCATC,1.08
7,GCGGGTCTAG,1
8,GCGGTAGATC,1.11
9,GCGGTATACA,1.03
10,GCGGTATACC,0.983
11,GCGGTATAGC,1.06
12,GCGGTATCT,1.02
13,GCGGTATGCA,0.969
14,GCGGTCAATG,0.961
15,GCGGTCCTAT,0.961
16,GCGGTCTGGC,0.93
17,GCGGTGTGTT,0.968
18,GCGGTTTCCA,1.01
19,GCGGTTTGGA,0.99
20,GCGTAAAACA,0.925
21,GCGTAACAAT,1.11
22,GCGTAAGTCA,0.989
23,GCGTACCCTT,1.04
24,GCGTACCGCT,1.04
25,GCGTACCGGG,1.01

row,Sequence,switch fluorescence ratio
1,GCGTACGAAA,1.02
2,GCGTACGGTT,0.996
3,GCGTACTAAA,1.01
4,GCGTAGAGAT,0.988
5,GCGTAGCGGG,0.958
6,GCGTATGAGC,1.01
7,GCGTCAAACC,1.04
8,GCGTCCCATG,1
9,GCGTCGAGG,1.06
10,GCGTCGGGCG,1.1
11,GCGTCTTGAG,1.02
12,GCGTCTTTGT,0.951
13,GCGTGAGTAT,0.951
14,GCGTGCCGGG,1.01
15,GCGTGCGTCT,0.97
16,GCGTGGCGCC,1.01
17,GCGTGGCTGA,1.03
18,GCGTGTAACG,0.99
19,GCGTTAAGGC,1.07
20,GCGTTAGCC,0.978
21,GCGTTCGGGG,1.04
22,GCGTTCTTAC,1.03
23,GCGTTGATTT,0.993
24,GCGTTGGGTT,0.988
25,GCGTTGGTAC,1.19

row,Sequence,switch fluorescence ratio
1,GCGTTGTGCT,1.09
2,GCGTTGTTCT,0.979
3,GCGTTTTTTA,1.03
4,GCTAAAAAG,1
5,GCTAAAATAA,1
6,GCTAAACAGT,0.984
7,GCTAAATGGG,1.01
8,GCTAACTATG,1.03
9,GCTAATGAGT,1
10,GCTAATGGG,1.03
11,GCTAATTCCA,1
12,GCTACAAGGT,1
13,GCTACAATCG,1
14,GCTACATCTA,1.01
15,GCTACCAACG,1.21
16,GCTACCGGCT,1.12
17,GCTACGAAGC,1.05
18,GCTACTGGAG,1.03
19,GCTACTGGGA,1.08
20,GCTAGAAAGT,0.974
21,GCTAGAATCC,1.02
22,GCTAGACGCC,1.1
23,GCTAGAGCGA,1.05
24,GCTAGAGTGG,0.987
25,GCTAGATTTC,1

row,Sequence,switch fluorescence ratio
1,GCTAGGATAA,0.981
2,GCTAGGATTG,0.981
3,GCTAGGCGTA,0.961
4,GCTAGGGACG,1.05
5,GCTAGTGATC,1.03
6,GCTATACATT,1.11
7,GCTATACGTC,1.19
8,GCTATATCCT,1.09
9,GCTATATTTC,1.12
10,GCTATCACCC,1.07
11,GCTATGGAGT,0.993
12,GCTATTCCCG,1.05
13,GCTATTTATG,0.988
14,GCTATTTCCC,1.15
15,GCTATTTCCG,1.01
16,GCTATTTTGG,0.969
17,GCTCAAAAGG,1.01
18,GCTCAAATAC,3.03
19,GCTCAATTTG,0.954
20,GCTCACGGCG,1.03
21,GCTCATACCA,1.03
22,GCTCATAGAG,1.05
23,GCTCATTGAT,1.01
24,GCTCATTTTT,1.01
25,GCTCCAACCT,1.57

row,Sequence,switch fluorescence ratio
1,GCTCCAACGT,1.05
2,GCTCCACAGC,1.24
3,GCTCCACTTA,1.2
4,GCTCCAGCGC,1.88
5,GCTCCATTTC,1.07
6,GCTCCCCGTA,1.06
7,GCTCCGGGTT,1.98
8,GCTCCGTTTT,1.25
9,GCTCCTCAGC,1.18
10,GCTCCTTTTC,1.09
11,GCTCGAAGGG,0.986
12,GCTCGCTTGC,1.54
13,GCTCGGCCGC,1.08
14,GCTCGTCTCC,0.98
15,GCTCGTTTGC,1.04
16,GCTCTATAGA,1.02
17,GCTCTCTTTA,0.961
18,GCTCTGAACG,1.02
19,GCTCTTAAAT,1.05
20,GCTCTTACTC,1.34
21,GCTCTTCGGT,0.977
22,GCTGAAAGAT,1.03
23,GCTGAATCTC,0.983
24,GCTGACCCGA,1.13
25,GCTGACGTAA,2.17

row,Sequence,switch fluorescence ratio
1,GCTGACTCA,1.07
2,GCTGAGGGAT,1.01
3,GCTGATAATT,0.942
4,GCTGATTTCA,1
5,GCTGATTTTG,1.02
6,GCTGCATGGG,1.06
7,GCTGCCCTTC,0.993
8,GCTGCGGCAT,0.972
9,GCTGCGTGA,1.16
10,GCTGCGTTTT,1
11,GCTGCTCGA,0.988
12,GCTGGAGTTA,0.989
13,GCTGGCTGTG,1
14,GCTGGGCGGT,0.958
15,GCTGGGTGAC,0.975
16,GCTGGGTTAA,0.968
17,GCTGGTACGC,0.975
18,GCTGGTACTT,1.01
19,GCTGGTCGAT,1.06
20,GCTGGTCTAA,0.997
21,GCTGTATCAT,1.03
22,GCTGTATGGA,1.04
23,GCTGTCAGAA,0.974
24,GCTGTCTTTT,1.03
25,GCTGTGATTG,1.02

row,Sequence,switch fluorescence ratio
1,GCTGTGTACT,1.04
2,GCTGTTAGC,0.986
3,GCTTAAAGCG,0.985
4,GCTTAAATGG,1.04
5,GCTTAACGAC,1.13
6,GCTTAATACA,1.01
7,GCTTACAAAT,1.01
8,GCTTACGGAA,1.21
9,GCTTACGGAC,1.5
10,GCTTAGGCGA,0.967
11,GCTTATAATC,0.979
12,GCTTATAGGA,1
13,GCTTATGACC,1.06
14,GCTTATTCGC,0.994
15,GCTTCAGTCC,1.03
16,GCTTCATGGA,1.03
17,GCTTCCCATA,1.03
18,GCTTCGGTAC,4.12
19,GCTTCGTAGG,0.985
20,GCTTCGTATG,0.994
21,GCTTGAATGA,1.03
22,GCTTGAATTG,0.993
23,GCTTGCAGTC,1.01
24,GCTTGCATCG,0.982
25,GCTTGGCAAG,0.99

row,Sequence,switch fluorescence ratio
1,GCTTGGCGCA,0.975
2,GCTTGGGAT,0.994
3,GCTTGGGCTC,1.04
4,GCTTGGTTCT,1.01
5,GCTTGTCGCG,0.985
6,GCTTGTTATT,0.982
7,GCTTTAGATC,1.01
8,GCTTTAGGGT,0.986
9,GCTTTGCCTT,1.04
10,GCTTTGTTGT,0.951
11,GCTTTTCCTG,0.993
12,GCTTTTGGAA,1.04
13,GGAAAAAACA,0.967
14,GGAAAAGTAG,0.992
15,GGAAACATCA,1.04
16,GGAAAGCATT,0.979
17,GGAAAGGTAA,1.07
18,GGAAATAGCG,0.991
19,GGAACATATT,0.993
20,GGAACATGTT,1
21,GGAACCGCAG,2.42
22,GGAACCTTGC,1.47
23,GGAACGTTAT,1.04
24,GGAACTATTA,1.02
25,GGAAGACGTT,1.02
